Assay results as given in PubChem BioAssay AID588453 (National Center for Advancing Translational Sciences (NCATS), 2011).
Out of some 390,000 compounds screened, about 4,000 (1%) were called active. This list was built around the results that the source calls inconclusive (neither active nor inactive); the mix of calls is not that of the screen. Calls come from the whole dose curve; as a rule, active = well fitted inhibition curve with a large enough effect; inconclusive = small, poorly fitted or top-dose-only effect; inactive = no such curve, though single readings can be large or run the other way. A potency beside an inconclusive call is a rough fit, not a confirmed value.

target: Thioredoxin reductase 1, cytoplasmic (Rattus norvegicus) (UniProt O89049); test: qHTS Assay for Inhibitors of Mammalian Selenoprotein Thioredoxin Reductase 1 (TrxR1): qHTS; conditions: recombinant rTrxR1, NADPH fluorescence consumption, selenite substrate; series mostly up to 114 µM; activity change, negative = inhibition: at the top concentration; note: nearly all actives have a fitted effect of over 65% in size
Chain of UniProt O89049 (O89049 whole entry, looked up): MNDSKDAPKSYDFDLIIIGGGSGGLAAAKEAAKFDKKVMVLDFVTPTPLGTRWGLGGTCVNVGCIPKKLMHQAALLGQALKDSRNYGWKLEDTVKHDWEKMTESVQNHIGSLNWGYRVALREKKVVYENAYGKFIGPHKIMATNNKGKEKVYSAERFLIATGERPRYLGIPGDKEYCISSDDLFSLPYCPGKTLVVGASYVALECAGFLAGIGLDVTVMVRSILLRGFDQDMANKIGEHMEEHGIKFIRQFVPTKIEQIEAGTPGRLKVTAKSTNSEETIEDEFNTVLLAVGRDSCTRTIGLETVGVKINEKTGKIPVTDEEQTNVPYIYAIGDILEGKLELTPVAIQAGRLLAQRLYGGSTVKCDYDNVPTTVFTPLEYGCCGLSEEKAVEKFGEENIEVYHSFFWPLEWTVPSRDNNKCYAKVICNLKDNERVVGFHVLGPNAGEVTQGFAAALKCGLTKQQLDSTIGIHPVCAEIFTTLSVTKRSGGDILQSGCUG
How it was run: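 Rat TrxR1 (90 nM in the dispensed reagent) was pre-reduced with 400 uM NADPH for 5 min at room temperature, then incubated with compound for 15 min. After 400 uM selenite was added, NADPH fluorescence (Ex 340/Em 450 nm) was followed for 8 min.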
% is set by controls: 0 for no effect and ±100 for the full control effect; potency is the fitted concentration of half-maximal effect; tags give direction and shape of the fitted curve.

Compound	Potency	activity change, negative = inhibition
O=C(c1cccc(C(F)(F)F)c1)N1CCC2(CC1)NCCc1[nH]cnc12	inconclusive: 79.4 µM [inhibitor, single point]	–
Clc1ccc(/C=C/c2ccnc3ccccc23)c(Cl)c1	inconclusive: 56.2 µM [inhibitor, partial curve]	–
Cc1ccc(S(=O)(=O)N2CCN(c3nc(-c4cccs4)nc4nc[nH]c34)CC2)cc1	–	inactive: 15.6%
COc1cccc(NCc2ccc([N+](=O)[O-])s2)c1	inconclusive: 89.1 µM [inhibitor, single point]	–
O=C(Cc1ccsc1)OCC(=O)c1ccccc1	–	inactive: 10.5% [at 57.1 µM]
Cc1cc(C)c2c(c1)c(C)cc1nnc(SCC(=O)c3ccccc3)n12	–	inactive: 14.5%
COc1ccc(C2/C=C\CN(CC(C)C)CC(=O)N2Cc2ccc(F)cc2)cc1 (stereo unspecified)	inconclusive: 25.1 µM [inhibitor, single point]	–
O=C(N/N=C/c1cc2c(cc1Cl)OCO2)c1cc(-c2ccccc2)n[nH]1	inconclusive: 89.1 µM [inhibitor, single point]	–
CC(C)(C)c1ccc(C(=O)Nc2ccc(-c3nc4ccccc4o3)c(O)c2)cc1	inconclusive: 44.7 µM [inhibitor, partial curve, poor fit]	–
COc1ccc(-c2nnc(SCC(=O)N3CCC(C)CC3)o2)cc1	–	inactive: 4.68%
O=S1(=O)CCC(NC(=S)Nc2ccc3ccccc3c2)C1 (stereo unspecified)	inconclusive: 79.4 µM [inhibitor, single point]	–
COc1ccc2cc(-c3ccsc3)ncc2c1	inconclusive: 70.8 µM [inhibitor, partial curve]	–
Oc1ccc(Br)cc1C1C=C(c2ccc3c(c2)OCO3)NC(c2ccc(Br)cc2)N1 (stereo unspecified)	inconclusive: 79.4 µM [inhibitor, single point]	–
COCCCNC(=O)C1CCN(Cc2cc3ccccc3n2Cc2cccc(C)c2)CC1	–	inactive: 7.08% [at 57.1 µM]
Cc1ccc(C(=O)CSc2nc(C(C)C)nc3ccccc23)cc1	–	inactive: -4.8%
CC1CCN(CC[S-])CC1.O.O.[Cl][Pt]	active: 1.41 µM	–
O=C(c1ccc(-c2ccccc2Cl)o1)N1CCN(S(=O)(=O)c2cccs2)CC1	inconclusive: 56.2 µM [inhibitor, partial curve]	–
Cc1ccc2[nH]c(=O)c(C3C(C#N)=C(N)Oc4c3ccc3cccnc43)cc2c1 (stereo unspecified)	inconclusive: 79.4 µM [inhibitor, partial curve]	–
CCCN(CC(=O)Nc1cc(Cl)ccc1Cl)C(=O)c1ccc(N2CCCC2=O)cc1	inconclusive: 89.1 µM [inhibitor, single point]	–
COc1ccc(NC(=O)c2ccco2)cc1NC(=O)c1cc(Cl)ccc1OC	–	inactive: 16.1%
COc1cccc2c1C(=O)c1c(O)c3c(c(O)c1C2=O)C[C@@](O)(C(=O)CO)C[C@@H]3O[C@H]1C[C@H](N)[C@@H](O)[C@H](C)O1	–	inactive: 6.26%
Nc1ccc(/C=C/c2nccc3ccccc23)cc1	–	inactive: 4.35%

Compound	Potency	activity change, negative = inhibition
Cc1c(N=C2C=C(Br)C(=O)C(Br)=C2)c(=O)n(-c2ccccc2)n1C	inconclusive: 7.08 µM [inhibitor, partial curve]	–
COc1ccc(C(=O)NN2C(=O)C3C4C=CC(O4)C3C2=O)cc1 (stereo unspecified)	inconclusive: 44.7 µM [inhibitor, partial curve, poor fit]	–
CCN1CCN(Cc2ccc(NC(=O)c3ccc(C)c(/C=C/c4cnc(Nc5cc(N6CCNCC6)nc(C)n5)cn4)c3)cc2C(F)(F)F)CC1	–	inactive: -16.7%
O=C(C[n+]1cc(Br)cc(Br)c1)c1ccc(Cl)cc1	inconclusive: 79.4 µM [inhibitor, single point]	–
C[C@@H]1CN([C@H](C)CO)C(=O)c2cc(NC(=O)c3ccncc3)ccc2O[C@@H]1CN(C)C(=O)Nc1ccccc1	active: 70.8 µM	–
CS(=O)(=O)N1N=C(c2ccco2)CC1c1ccccc1Cl (stereo unspecified)	inconclusive: 56.2 µM [inhibitor, partial curve, poor fit]	–
O=C(CSc1nc2ccccc2nc1Cc1ccc(Cl)cc1)N1CCN(c2ccccc2)CC1	–	inactive: 30% [at 57.1 µM]
Cc1nn(-c2ccccc2)c2nc(C(Cl)(Cl)Cl)[nH]c(=O)c12	inconclusive: 56.2 µM [inhibitor, partial curve]	–
O=C(N/N=C/c1c(O)n(Cc2ccccc2)c(=O)c2ccccc12)c1cccnc1	–	inactive: 10.5% [at 57.1 µM]
CCc1c(C)c2cc3c(c(C)c2oc1=O)OCN(CCc1ccccc1F)C3	inconclusive: 79.4 µM [inhibitor, partial curve]	–
Cc1ccc(S(=O)(=O)/N=C(\Sc2ccccc2)c2ccccc2)cc1	active: 2.82 µM	–
CN1/C(=C\C(=O)c2cncc(Br)c2)C(C)(C)c2ccccc21	inconclusive: 79.4 µM [inhibitor, single point]	–
Cc1cccc2cc(C3CC(c4ccco4)=NN3S(=O)(=O)c3ccccc3)c(Cl)nc12 (stereo unspecified)	inconclusive: 79.4 µM [inhibitor, single point]	–
Cc1noc(/C=C/c2ccco2)c1S(=O)(=O)N1CCC(C(=O)N(C)Cc2ccccc2)CC1	active: 70.8 µM	–
O=[N+]([O-])c1ccc(/C=[N+](\[O-])CCO)o1	inconclusive: 14.1 µM [inhibitor, partial curve, poor fit]	–
CCC1=C/C(=C/c2sc3ccccc3[n+]2CC)CC(C)(C)C1	inconclusive: 25.1 µM [inhibitor, single point]	–
Cc1ccc(-c2nc(CS(=O)CC(=O)NCc3ccccc3)c(C)o2)cc1 (stereo unspecified)	inconclusive: 15.8 µM [inhibitor, partial curve]	–
CC1(C)Cc2noc(N)c2C(C)(C)N1OC(=O)c1scc2c1OCCO2	inconclusive: 31.6 µM [inhibitor, single point]	–
Cc1ccc(C2CC(c3ccccc3)=NN2c2ccccc2)o1 (stereo unspecified)	inconclusive: 39.8 µM [inhibitor, single point]	–
Cc1onc(-c2ccccc2)c1C(=O)n1nnc2ccccc21	inconclusive: 15.8 µM [inhibitor, partial curve]	–
CC1CN(C(NC(=O)C(C)(C)C)C(Cl)(Cl)Cl)CC(C)O1 (stereo unspecified)	inconclusive: 50.1 µM [inhibitor, partial curve]	–
COc1cccc(/C=N/NC(=O)CCCc2ccc(OC)c(C)c2)c1	inconclusive: 79.4 µM [inhibitor, partial curve]	–

Compound	Potency	activity change, negative = inhibition
Cc1ccc(CNC(=O)C(=O)NCC(c2ccc3c(c2)OCO3)N2CCOCC2)cc1 (stereo unspecified)	–	inactive: 24.4% [at 57.1 µM]
CCCCn1nc(C(=O)NCC(=O)Nc2c(C)cccc2C)c2ccccc2c1=O	inconclusive: 89.1 µM [inhibitor, single point]	–
COc1cc(/C=C(/C(=O)c2cccs2)c2nc3ccccc3[nH]2)ccc1O	active: 14.1 µM	–
Cc1cc(=O)oc2c3c(cc(OCC(=O)NCc4ccco4)c12)OC(C)(C)CC3	inconclusive: 44.7 µM [inhibitor, partial curve]	–
C/C(=N\NC(=S)Nc1ccccc1C)c1ccc(O)cc1	–	inactive: 28.7% [at 57.1 µM]
C#CCOCCOCCOCCNc1nc(N2CCN(C(=O)CCCCCCCCCCNC(=O)[C@H](CCCCN)n3cc(CCO)nn3)CC2)nc(N2CCN(C(=O)CCCCCCCCCCNC(=O)[C@H](CCCCN)n3cc(C[C@@H](C)CC)nn3)CC2)n1	inconclusive: 14.1 µM [inhibitor, full curve]	–
FC(F)(F)c1cc(-c2ccco2)nc(NCc2ccco2)n1	inconclusive: 14.1 µM [inhibitor, single point]	–
COc1ccc(C2=NOC3(CC(=O)N(c4ccc(F)cc4)C3=O)C2)cc1 (stereo unspecified)	inconclusive: 44.7 µM [inhibitor, partial curve]	–
COc1ccc2[nH]cc(CCN=C(NC(=O)c3ccccc3OC)Nc3nc(C)cc(C)n3)c2c1	–	inactive: 16.8% [at 11.4 µM]
CCOc1ccc(N2C(=O)/C(=C/c3ccco3)N(C)C2=S)cc1	inconclusive: 56.2 µM [inhibitor, partial curve, poor fit]	–
O=C(OCC(=O)N1CCN(c2ccccc2)CC1)c1ccco1	inconclusive: 56.2 µM [inhibitor, partial curve]	–
COC(=O)Cc1c(C)c2ccc3c(c2oc1=O)CN(Cc1ccccc1Cl)CO3	inconclusive: 100 µM [inhibitor, single point]	–
CCOc1ccc(-c2c(C)nn3c(C)c(C(=O)NCCc4ccc(C)cc4)cnc23)cc1OCC	–	inactive: 12.1% [at 57.1 µM]
CCc1c(C)sc2c1CCN(Cc1ccccc1F)C2c1ccccc1 (stereo unspecified)	–	inactive: 13.2% [at 57.1 µM]
O=C1CC(Sc2nnc(-c3ccccc3O)o2)C(=O)N1c1ccccc1 (stereo unspecified)	inconclusive: 31.6 µM [inhibitor, partial curve, poor fit]	–
CCCCCCCCCCCC[n+]1ccc(C)c2ccccc21	inconclusive: 56.2 µM [inhibitor, partial curve]	–
Cc1ccc(NC(=O)Cc2nc(CCl)cs2)cc1	inconclusive: 70.8 µM [inhibitor, partial curve]	–
Cc1[nH]c(=O)c(C#N)cc1-c1ccc2nccn2c1	inconclusive: 13.4 µM [inhibitor, partial curve]	–
COc1ccc(N(C)C(=O)Cn2cc(S(=O)(=O)N3CCN(c4ccccc4F)CC3)c3ccccc3c2=O)c(OC)c1	–	inactive: 15%
CCOC(=O)c1cn[nH]c1NC(=S)Nc1ccccc1	inconclusive: 44.7 µM [inhibitor, partial curve]	–
COc1ccc(C(C[N+](=O)[O-])c2c(-c3ccccc3)cc3ccccn23)cc1 (stereo unspecified)	inconclusive: 4.47 µM [inhibitor, partial curve]	–
O=C(O)c1ccccc1N=Nc1ccc(O)cc1	inconclusive: 89.1 µM [inhibitor, partial curve, poor fit]	–
